Over roughly 110,000 compounds, “z-score” has its median near -0.1; the highest 2% begin near 2. The list shows a part of the results. Active and inactive are the calls of the source.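 Rule for the calls: active = z-score in the third read window above 3 or below -3; inactive = the rest.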
molecular target: Metabotropic glutamate receptor 8 (Rattus norvegicus) (UniProt P70579); assay: rat mGluR8 modulators via GIRK flux, primary screen, cell-based, thallium flux, HTS (AID 488969); details: HEK293 rat mGluR8, GIRK (G protein-gated inwardly rectifying potassium channel) thallium flux, FluoZin2; at 10 µM; stronger effect = higher value; submaximal glutamate (EC20) added with thallium
Sequence of UniProt P70579 (P70579 whole entry, looked up): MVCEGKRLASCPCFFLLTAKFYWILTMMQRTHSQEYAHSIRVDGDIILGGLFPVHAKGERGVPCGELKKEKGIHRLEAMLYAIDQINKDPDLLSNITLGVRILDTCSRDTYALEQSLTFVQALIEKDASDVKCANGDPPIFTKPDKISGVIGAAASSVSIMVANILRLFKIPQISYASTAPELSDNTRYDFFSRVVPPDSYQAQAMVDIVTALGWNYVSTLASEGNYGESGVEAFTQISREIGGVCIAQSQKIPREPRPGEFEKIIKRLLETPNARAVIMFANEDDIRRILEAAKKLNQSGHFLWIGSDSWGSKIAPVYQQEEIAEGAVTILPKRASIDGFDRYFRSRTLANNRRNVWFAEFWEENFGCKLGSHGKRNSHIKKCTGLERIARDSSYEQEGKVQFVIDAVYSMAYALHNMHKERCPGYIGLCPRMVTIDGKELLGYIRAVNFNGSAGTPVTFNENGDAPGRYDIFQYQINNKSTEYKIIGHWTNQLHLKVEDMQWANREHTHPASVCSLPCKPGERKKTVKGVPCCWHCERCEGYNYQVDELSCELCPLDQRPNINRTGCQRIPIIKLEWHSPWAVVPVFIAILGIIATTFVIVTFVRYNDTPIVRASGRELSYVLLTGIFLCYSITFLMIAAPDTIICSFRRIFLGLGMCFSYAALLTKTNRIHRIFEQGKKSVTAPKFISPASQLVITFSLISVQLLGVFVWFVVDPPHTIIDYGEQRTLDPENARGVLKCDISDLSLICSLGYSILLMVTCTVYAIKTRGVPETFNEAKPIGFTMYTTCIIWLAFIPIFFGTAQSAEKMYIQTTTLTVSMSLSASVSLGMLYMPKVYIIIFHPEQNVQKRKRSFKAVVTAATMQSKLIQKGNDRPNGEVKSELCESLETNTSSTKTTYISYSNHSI

SMILES | z-score
CC1=C(C(=O)Nc2cccnc2)C(c2ccc3c(c2)OCO3)C2=C(CCCC2=O)N1 (centres undefined) | active: -4.47
Cc1nnc(SCc2cc(=O)[nH]c(N3CCCCC3)n2)s1 | 0.132
CCN(C(=O)CSc1nc2c(cnn2-c2ccccc2)c(=O)[nH]1)C1CCS(=O)(=O)C1 (centres undefined) | -0.203
CN1CCC(=NNC(=O)C(=O)NC(C)(C)C)CC1 | -0.16
O=c1c2ccc(Cl)cc2nc(-c2cccc(C(F)(F)F)c2)n1O | active: 10.9
CCCCC(CC)CNC(=O)C1C2C=CC(C2)C1C(=O)O (centres undefined) | -0.128
O=C(Nc1nccs1)c1sc2ccccc2c1Cl | -0.256
Cc1nn(-c2ccc(F)cc2)c(Cl)c1/C=N/NC(=O)c1cccc(S(=O)(=O)N2CCCC2)c1 | -0.115
COc1ccc(C(=O)NCc2ccc(N3CCN(C(=O)OC(C)(C)C)CC3)cc2)cc1 | 0.0243
c1ccc(-c2nnc(CN3CCC4(CC3)OCCO4)o2)cc1 | 0.99
Cc1ccc(NC(=O)CN(C)Cc2ccc(F)cc2)c([N+](=O)[O-])c1 | -0.39
CCN1CCN(C(c2ccc(OC)cc2)C(O)C(=O)c2c[nH]c3ccccc23)CC1 (centres undefined) | 0.0792
CCc1ccc(N2CC34C=CC(O3)C(C(=O)OC)C4C2=O)cc1 (centres undefined) | 0.0324
CCOC(=O)c1cc(NC(=O)c2ccc(OC)cc2)c(=O)oc1-c1ccccc1 | 0.822
CCc1cc(C(=O)NNC(=S)NC(C)c2ccccc2)cs1 (centres undefined) | -0.0787
S=C(NCCc1ccccn1)NC1CCCCC1 | 0.79
COc1cc2c(cc1NC(=O)Nc1ccccc1)oc1ccccc12 | -0.0976
COC(=O)c1ccccc1NC(=O)c1ccc2c(c1)C(=O)N(Cc1ccco1)C2=O | -0.251
S=C(NCc1ccco1)Nc1cc(Cl)c(Cl)cc1Cl | 0.256
Cc1cc(C)c2c(N)c(C(=O)N3CCCCCC3)sc2n1 | -0.112
CCN1C(=O)c2cccc3c(S(=O)(=O)Nc4ccccc4OC)ccc1c23 | -0.357
CC1CN(C2CCN(S(=O)(=O)c3ccc4ccccc4c3)CC2)CC(C)O1 (centres undefined) | -0.525

SMILES | z-score
Cc1ccc(C(C)C)c(Oc2nnnn2-c2ccccc2)c1 | 1.78
Cc1ccc(CN2CCN(/N=C/c3cc([N+](=O)[O-])ccc3Cl)CC2)cc1 | -0.188
COc1ccc(NS(=O)(=O)c2ccc(NC(=O)c3ccc(N(C)S(C)(=O)=O)cc3)cc2)cc1 | 1.47
Cc1cccc(N(C(=O)CNC(=O)c2ccco2)C(C(=O)NC2CCCC2)c2ccncc2)c1 (centres undefined) | -0.0705
CCCCNC(=O)CCn1nc(-c2ccccc2)ccc1=O | -0.431
COc1ccc(CN(C(=O)c2ccc3c(c2)OCCO3)C(C(=O)NC2CCCCC2)c2ccc3ncccc3c2)cc1 (centres undefined) | -0.109
c1cnc(Oc2ccc3oc4ccccc4c3c2)nc1 | 0.482
CCOc1ccc2[nH]c(=O)c(CN(CCOC)C(=O)N3CCOCC3)cc2c1 | -0.0737
COc1ccc(CNC(=O)C2COc3ccccc3O2)cc1 (centres undefined) | 0.617
O=C(CCCn1c(=O)[nH]c2ccsc2c1=O)NCc1cccs1 | 0.377
COC(=O)NNC(=S)NCc1ccc(C)cc1 | -0.18
Cn1c(=O)c2ncn(CC(=O)NC3CCCCCC3)c2n(C)c1=O | 0.0135
O=C(Nc1ccc2c(c1)OCCO2)c1ccccc1F | 0.326
COc1ccc(NC(=O)CSc2nnc3c4c(nc(-c5ccccc5)n23)CC(C)(C)OC4)cc1 | -0.0793
CC1CCN(S(=O)(=O)c2ccc3c(c2)c(=O)c(C(=O)N2CCCCC2)cn3C)CC1 | 0.338
CC1(C)CC(=O)C(CC(=O)NC(=O)NCc2ccccc2)=C(O)C1 | 0.0672
Cc1cccc(C(=O)NCCc2nnc(SCC(=O)Nc3nc(C)cs3)n2C)c1 | 2.62
COc1ccc(NC(=O)/C=C/c2ccc(C)o2)cc1S(=O)(=O)N1CCOCC1 | -0.191
COC(=O)C1C2CCC(C2)C1C(=O)OCC(=O)c1ccc(C)cc1 (centres undefined) | -0.107
Cc1ccc(S(=O)(=O)c2nc(Nc3ccccc3N3CCOCC3)sc2Cl)cc1 | -0.432
CC1(C)CC(=O)C2=C(C1)OC1=C(C(=O)CC(C)(C)C1)C2c1ccccc1 | -0.146
Cc1cc(/C=C2/NC(=O)NC2=O)c(C)n1-c1cccnc1 | -0.806

SMILES | z-score
O=C(CCn1c(=O)oc2ccccc21)N1CCc2ccccc21 | -0.0986
Cc1ccc(-n2nc3c(n2)/C(=N/O)CC/C3=N\O)cc1 | 0.359
CCOC(=O)Cc1cc(OC)c(OC)cc1Cc1cc(OC)c(OC)cc1CC(=O)OCC | 0.379
O=C(O)c1ccc(CSc2nnc(Cc3ccccc3)o2)cc1 | 0.0263
Cc1ccc([N+](=O)[O-])cc1S(=O)(=O)N(C(=O)c1ccncc1)c1ccc2oc3c(c2c1)CCCC3 | 0.13
O=C(c1ccco1)N1CCCN(C(=O)c2ccco2)CC1 | -0.354
Cc1cc(=O)[nH]c(SCC(=O)N2c3ccccc3CC2C)n1 (centres undefined) | -0.586
Cc1ccc(C)c(OCCCC(=O)O)c1 | -0.184
Cc1cc(=O)oc(C)c1C(=O)NCCCN1C(C)CCCC1C (centres undefined) | 0.465
Cc1sc2ncn(CC(=O)NCCc3ccccc3)c(=O)c2c1C | 0.251
O=C(CN1CCCCC1)NCCNC(=O)CN1CCCCC1 | 0.0176
N#Cc1nc(-c2ccco2)oc1N1CCN(C(c2ccccc2)c2ccccc2)CC1 | -0.0381
COC(=O)c1sccc1NC(=O)c1cccc(OC)c1 | -0.0306
Cc1c(C(=O)OC(C)C)[nH]c2c1C(=O)CCC2 | -0.64
CCSc1nc(C)cc(C)c1S(=O)(=O)c1ccccc1C | -0.237
CCOC(=O)C1CCC(CN(Cc2ccccc2)S(=O)(=O)c2ccc([N+](=O)[O-])cc2)CC1 (centres undefined) | -0.476
CCOC(=O)Cn1nc(/C=C/c2ccccc2)ccc1=O | -0.0963
O=C(Nc1ccc(N2CCCC(O)C2)cc1)c1snc2c(=O)[nH]cnc12 (centres undefined) | -0.238
O=C(COc1ccc2ccccc2c1)NCCc1ccc2c(c1)OCCO2 | -0.724
Cc1cc(=O)n2ncnc2n1COCCO | 0.12
CC(C)Cn1c(-c2nn(C)cc2Cl)n[nH]c1=S | 0.244
CCc1cc(=O)oc2cc(C)cc(OC(=O)c3ccco3)c12 | -1.04

SMILES | z-score
Cc1cccc(C)c1NC(=O)CSc1nnc(-c2ccncc2)n1Cc1ccco1 | -0.176
CC(/C=N/NC(=O)c1ccncc1)=C\c1ccccc1 | 0.474
Cc1nc2cc(C(=O)O)ccc2n1-c1ccccc1 | -0.182
COc1cccc(-c2[nH]nc3c2C(c2ccsc2)C(C#N)=C(N)O3)c1 (centres undefined) | -0.357
C=CCn1c(=O)c(C(=O)Nc2ccccc2O)c(O)c2ccccc21 | -0.43
C=CCNc1nc(Nc2ccc(OC)cc2)nc(OCC)n1 | -0.00352
COc1cc(/C=N/NC(=O)c2[nH]nc3c2CCc2ccccc2-3)ccc1O | -0.565
Cc1nn(C)c(C(=O)NNC(=S)Nc2ccc(F)cc2)c1[N+](=O)[O-] | -0.092
CCOC(=O)c1c(C)oc2c1cc(O)c1ccccc12 | -0.493
O=C(CSc1nnc(COc2ccccc2)o1)c1ccccc1 | -0.179
O=C(Cc1cccs1)Nc1cccc(-c2nc3ccccc3[nH]2)c1 | 0.109
CN(Cc1ccccc1)C(=S)NC(=O)C1CCCCC1 | 1.47
COc1ccccc1S(=O)(=O)Cc1ccc(C(=O)N2CCN(c3ccccc3)CC2)o1 | -0.523
COc1ncnc2c1cnn2-c1ccccc1 | -0.223
CC1CCC/C(=N\NC(=S)NCc2ccccc2)C1 (centres undefined) | 1.93
N#Cc1cc2c(nc1SCC(=O)Nc1nccs1)CCCCC2 | -0.152
CC(C)C(C)(C#N)NC(=O)CSc1ncnc2sc(-c3ccccc3)cc12 (centres undefined) | active: 4.81
Cc1ccc(-n2c(-c3c(-c4ccccc4)noc3C)n[nH]c2=S)cc1 | 0.919
CCCC1=C(C(=O)OCC)C(c2ccc(OC)c(CSc3ccccn3)c2)C(C#N)=C(N)O1 (centres undefined) | -0.0881
CC1(C)CC(NC(=O)CC(c2ccccc2)c2ccccc2)CC(C)(C)N1 | 0.479
C=CCc1ccc(OCCOCCOc2cccc3cccnc23)c(OC)c1 | -0.697
NC(=O)NC(=O)COC(=O)CN1C(=O)C2CCCCC2C1=O (centres undefined) | 0.309

SMILES | z-score
CCn1c(C)cc2c(c1=O)C(c1ccccc1)C(C(=O)OC)=C(N)O2 (centres undefined) | 0.227
CN(CC#CC1(O)c2ccccc2-c2ccccc21)Cc1ccccc1 | 0.054
N#Cc1c2c(c(N3CCN(c4ccccn4)CC3)n3c1nc1ccccc13)CCC2 | -0.376
Cc1ccc(C(C(=O)NC2CCCC2)N(C(=O)Cc2cccs2)c2ccc(C)c(C)c2)o1 (centres undefined) | -0.224
O=C(NCCN1C(=O)C2C3C=CC(C3)C2C1=O)Nc1ccc(Br)cc1 (centres undefined) | 0.25
COc1ccc2cc(CN(C(=O)Nc3ccccc3OC)C3CCCC3)c(=O)[nH]c2c1 | -0.24
COc1ccc(C(=O)OC(C)CN2CCN(C)CC2)cc1OC (centres undefined) | 0.331
C=CCc1cccc2cc(C(=O)Nc3ccc(S(=O)(=O)Nc4nnc(CC)s4)cc3)c(=O)oc12 | -0.0201
O=c1cc(N2CCN(c3ccccc3F)CC2)[nH]c(=O)n1-c1ccc(Br)cc1 | 0.0857
O=C(CC(=O)Nc1ccccn1)Nc1ccccn1 | active: 4.08
CCOc1ccccc1NC(=O)C(Sc1ccccc1)c1ccccc1 (centres undefined) | -0.158
Cc1ccc(-c2noc(CN(C(=O)CCCCCN3C(=O)c4ccccc4C3=O)C(C)C)n2)cc1 | 0.296
O=C(Nn1cnnc1)C1Cc2ccccc2CN1S(=O)(=O)c1ccc(F)cc1 (centres undefined) | -0.00582
NC(=O)c1c(-c2ccccc2)oc2ccc(O)cc12 | 0.00752
CCOc1ccc(NCc2nnc(SCC(=O)Nc3nc(-c4ccccc4)cs3)n2-c2ccccc2)cc1 | -0.203
Cc1nnc(SCc2cc(=O)[nH]c(Nc3nc(C)c4ccccc4n3)n2)s1 | -0.33
COC(=O)c1ccc(CSc2nnc(-c3c[nH]c4ccccc34)n2-c2ccccc2)cc1 | -0.222
CCOc1ccc2nc(N3CCCC(C(=O)N4CCN(CC)CC4)C3)sc2c1 (centres undefined) | -0.536
Brc1ccc(Nc2c3c(nc4ncnn24)CCC3)cc1 | -0.339
CC(C)C1N(C(=O)CN2CCCC2)CCN1S(=O)(=O)c1ccccc1 (centres undefined) | 0.282
N#Cc1ccccc1NC(=O)COC(=O)CSc1nc2ccccc2o1 | -2.27
